Measurements taken from the supplement of paper PMC4604168 (melanoma cell lines).
This is one part of the list. Single values are uncertain, as repeats are few or missing.

Assays:
Experiment in all cases: cell count relative to DMSO control; melanoma cells; higher = more viable cells
Conditions in all cases: library dose: low library concentration; 72 h
MZ2-MEL = tested on: MZ2-MEL
MeWo = tested on: MeWo
RPMI7951 = tested on: RPMI7951
RVH-421 = tested on: RVH-421
SkMel28 = tested on: SkMel28
SkMel2 = tested on: SkMel2
SkMel30 = tested on: SkMel30
UACC62 = tested on: UACC62
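Note: cell number obtained by counting DAPI-stained nuclei in high-throughput microscope images with image analysis software, screen run in 1,536-well plates.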

Row | SMILES | cell count (MZ2-MEL) | cell count (MeWo) | cell count (RPMI7951) | cell count (RVH-421) | cell count (SkMel28) | cell count (SkMel2) | cell count (SkMel30) | cell count (UACC62)
1 | O=C(/C=C/c1cccnc1)NCCCCC1CCN(C(=O)c2ccccc2)CC1 + CCN(CC)CCNC(=O)c1c(C)[nH]c(/C=C2\C(=O)Nc3ccc(F)cc32)c1C [sunitinib] (first compound 0.01 µM, partner dose 0.4 µM) | 45.9% | 92.2% | 115% | 48.1% | 71.5% | 32.3% | 83.4% | 83.1%
2 | Cc1ccc(Nc2nccc(N(C)c3ccc4c(C)n(C)nc4c3)n2)cc1S(N)(=O)=O [Pazopanib] + NC1(c2ccc(-c3nc4ccn5c(=O)[nH]nc5c4cc3-c3ccccc3)cc2)CCC1 [MK2206] (first compound 0.4 µM, partner dose 0.4 µM) | 70.1% | 98.1% | 89.3% | 117% | 94.3% | 93.2% | 89.4% | 73.5%
3 | O=C(/C=C/c1cccnc1)NCCCCC1CCN(C(=O)c2ccccc2)CC1 + OCc1c[nH]c2ccccc12 [Indole-3-carbinol] (first compound 0.01 µM, partner dose 0.8 µM) | 43.9% | 90.2% | 83.1% | 73% | 99.4% | 72.6% | 101% | 82.7%
4 | CC1(C)CCC(c2ccc(Cl)cc2)=C(CN2CCN(c3ccc(C(=O)NS(=O)(=O)c4ccc(N[C@H](CCN5CCOCC5)CSc5ccccc5)c(S(=O)(=O)C(F)(F)F)c4)cc3)CC2)C1 + O=C(O)c1ccc2c(c1)nc(Nc1cccc(Cl)c1)c1ccncc12 [CX4945] (first compound 0.4 µM, partner dose 0.4 µM) | 83.2% | 62.2% | 51.7% | 55.2% | 87.5% | 88.2% | 80.1% | 102%
5 | CC1(C)CCC(c2ccc(Cl)cc2)=C(CN2CCN(c3ccc(C(=O)NS(=O)(=O)c4ccc(N[C@H](CCN5CCOCC5)CSc5ccccc5)c(S(=O)(=O)C(F)(F)F)c4)cc3)CC2)C1 + COCC[n+]1c2c(n(Cc3cnccn3)c1C)C(=O)c1ccccc1C2=O [YM155] (first compound 0.4 µM, partner dose 0.0004 µM) | 44.7% | 59% | 32.3% | 48.7% | 93.6% | 70.3% | 60.4% | 84.8%
6 | Cc1ccc(Nc2nccc(N(C)c3ccc4c(C)n(C)nc4c3)n2)cc1S(N)(=O)=O [Pazopanib] + CCCS(=O)(=O)Nc1ccc(F)c(C(=O)c2c[nH]c3ncc(Cl)cc23)c1F [PLX4720] (first compound 0.4 µM, partner dose 0.08 µM) | 74.5% | 113% | 87.5% | 101% | 100% | 109% | 92.7% | 85.5%
7 | CC1(C)CCC(c2ccc(Cl)cc2)=C(CN2CCN(c3ccc(C(=O)NS(=O)(=O)c4ccc(N[C@H](CCN5CCOCC5)CSc5ccccc5)c(S(=O)(=O)C(F)(F)F)c4)cc3)CC2)C1 + Clc1ccc(Nc2nnc(Cc3ccncc3)c3ccccc23)cc1 [vatalanib] (first compound 0.4 µM, partner dose 2 µM) | 90.5% | 47.8% | 47.6% | 92.2% | 73.1% | 83.5% | 67.4% | 86.1%
8 | O=C(/C=C/c1cccnc1)NCCCCC1CCN(C(=O)c2ccccc2)CC1 + O=C(O)[C@@H]1[O][Sb](=[O])([O][Sb]2(=[O])[O][C@H]([C@H](O)CO)[C@H](O)[C@H](C(=O)O)[O]2)[O][C@H]([C@H](O)CO)[C@@H]1O [stibogluconate] (first compound 0.01 µM, partner dose 2 µM) | 48.4% | 103% | 116% | 65.1% | 97.6% | 39.2% | 122% | 101%
9 | O=C(/C=C/c1cccnc1)NCCCCC1CCN(C(=O)c2ccccc2)CC1 + Cc1cc(Nc2cc(N3CCN(C)CC3)nc(/C=C/c3ccccc3)n2)n[nH]1 [ENMD2076] (first compound 0.01 µM, partner dose 0.04 µM) | 41% | 99% | 96.2% | 65.9% | 91.2% | 33.3% | 101% | 106%
10 | CC1(C)CCC(c2ccc(Cl)cc2)=C(CN2CCN(c3ccc(C(=O)NS(=O)(=O)c4ccc(N[C@H](CCN5CCOCC5)CSc5ccccc5)c(S(=O)(=O)C(F)(F)F)c4)cc3)CC2)C1 + Nc1ncn([C@H]2C[C@H](O)[C@@H](CO)O2)c(=O)n1 [decitabine] (first compound 0.4 µM, partner dose 0.1 µM) | 85.6% | 63% | 48.2% | 70.2% | 90.3% | 81.4% | 79.8% | 74.8%
11 | Cc1ccc(Nc2nccc(N(C)c3ccc4c(C)n(C)nc4c3)n2)cc1S(N)(=O)=O [Pazopanib] + Cn1sc(=O)n(Cc2ccccc2)c1=O [TDZD-8] (first compound 0.4 µM, partner dose 0.4 µM) | 74.9% | 101% | 96% | 98.4% | 89.8% | 101% | 89.3% | 106%
12 | Cc1ccc(Nc2nccc(N(C)c3ccc4c(C)n(C)nc4c3)n2)cc1S(N)(=O)=O [Pazopanib] + CCCCCCCCc1ccc(CCC(N)(CO)CO)cc1 [fingolimod] (first compound 0.4 µM, partner dose 2 µM) | 75.3% | 106% | 74.9% | 78.7% | 93.2% | 107% | 97.3% | 88.1%
13 | O=C(/C=C/c1cccnc1)NCCCCC1CCN(C(=O)c2ccccc2)CC1 + C[C@@H](Oc1cc(-c2cnn(C3CCNCC3)c2)cnc1N)c1c(Cl)ccc(F)c1Cl [Crizotinib] (first compound 0.01 µM, partner dose 0.2 µM) | 43.3% | 105% | 134% | 58.9% | 92% | 33.6% | 123% | 96.8%
14 | Cc1ccc(Nc2nccc(N(C)c3ccc4c(C)n(C)nc4c3)n2)cc1S(N)(=O)=O [Pazopanib] + Nc1ncn([C@H]2C[C@H](O)[C@@H](CO)O2)c(=O)n1 [decitabine] (first compound 0.4 µM, partner dose 0.1 µM) | 70.2% | 97.8% | 70.6% | 76.3% | 83.4% | 98.1% | 88.8% | 89.9%
15 | Cc1ccc(Nc2nccc(N(C)c3ccc4c(C)n(C)nc4c3)n2)cc1S(N)(=O)=O [Pazopanib] + Cc1cn(-c2cc(NC(=O)c3ccc(C)c(Nc4nccc(-c5cccnc5)n4)c3)cc(C(F)(F)F)c2)cn1 [nilotinib] (first compound 0.4 µM, partner dose 0.2 µM) | 74% | 98% | 93.1% | 89.9% | 90.4% | 89.4% | 99.7% | 97%
16 | Cc1ccc(Nc2nccc(N(C)c3ccc4c(C)n(C)nc4c3)n2)cc1S(N)(=O)=O [Pazopanib] + CCN(CC)CCNC(=O)c1c(C)[nH]c(/C=C2\C(=O)Nc3ccc(F)cc32)c1C [sunitinib] (first compound 0.4 µM, partner dose 0.4 µM) | 77% | 91.2% | 106% | 108% | 104% | 99.7% | 93.8% | 103%
17 | Cc1ccc(Nc2nccc(N(C)c3ccc4c(C)n(C)nc4c3)n2)cc1S(N)(=O)=O [Pazopanib] + OCc1c[nH]c2ccccc12 [Indole-3-carbinol] (first compound 0.4 µM, partner dose 0.8 µM) | 76% | 112% | 90.9% | 99.7% | 106% | 98.8% | 85% | 105%
18 | Cc1ccc(Nc2nccc(N(C)c3ccc4c(C)n(C)nc4c3)n2)cc1S(N)(=O)=O [Pazopanib] + Cc1cc(Nc2cc(N3CCN(C)CC3)nc(/C=C/c3ccccc3)n2)n[nH]1 [ENMD2076] (first compound 0.4 µM, partner dose 0.04 µM) | 69.3% | 101% | 85.6% | 113% | 82.1% | 110% | 88.7% | 94.2%
19 | Cc1ccc(Nc2nccc(N(C)c3ccc4c(C)n(C)nc4c3)n2)cc1S(N)(=O)=O [Pazopanib] + Clc1ccc(Nc2nnc(Cc3ccncc3)c3ccccc23)cc1 [vatalanib] (first compound 0.4 µM, partner dose 2 µM) | 78.3% | 98.4% | 86.2% | 85.4% | 104% | 93.2% | 97.1% | 89.6%
20 | O=C(/C=C/c1cccnc1)NCCCCC1CCN(C(=O)c2ccccc2)CC1 + CCCCCCCCc1ccc(CCC(N)(CO)CO)cc1 [fingolimod] (first compound 0.01 µM, partner dose 2 µM) | 40% | 90.8% | 79.8% | 44.1% | 73.1% | 26.9% | 98.1% | 95.9%
21 | Cc1ccc(Nc2nccc(N(C)c3ccc4c(C)n(C)nc4c3)n2)cc1S(N)(=O)=O [Pazopanib] + O=C(O)c1ccc2c(c1)nc(Nc1cccc(Cl)c1)c1ccncc12 [CX4945] (first compound 0.4 µM, partner dose 0.4 µM) | 66% | 112% | 91.6% | 110% | 118% | 92.6% | 73.1% | 86.4%
